From the supplement of paper PMC3334620
In all, about 33,000 sequences were measured (“E-score (-0.5 to 0.5)”: median about -0.035, highest 2% from about 0.34 on). The list shows a part of the results.

Molecular target: T1, Mot3 (UniProt P54785)
T1 sequence: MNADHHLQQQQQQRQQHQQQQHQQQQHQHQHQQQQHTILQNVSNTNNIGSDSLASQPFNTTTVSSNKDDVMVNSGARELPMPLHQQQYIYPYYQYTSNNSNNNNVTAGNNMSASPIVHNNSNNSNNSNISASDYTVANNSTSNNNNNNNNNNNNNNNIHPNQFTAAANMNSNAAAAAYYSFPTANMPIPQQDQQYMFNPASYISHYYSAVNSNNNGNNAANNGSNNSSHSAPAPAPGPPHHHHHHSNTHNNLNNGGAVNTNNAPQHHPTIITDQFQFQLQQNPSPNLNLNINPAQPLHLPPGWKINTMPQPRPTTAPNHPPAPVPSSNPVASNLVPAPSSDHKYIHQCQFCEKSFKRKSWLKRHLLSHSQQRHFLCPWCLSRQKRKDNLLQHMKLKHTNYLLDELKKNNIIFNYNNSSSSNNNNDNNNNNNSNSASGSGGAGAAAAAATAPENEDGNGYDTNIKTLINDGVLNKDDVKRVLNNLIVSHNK
Assay: PBM E-score (8-mer binding enrichment) (E-score (-0.5 to 0.5)); higher = stronger / more preferred TF binding; most listed sequences are background and not binding sites
Settings: protein concentration: 200 nM; construct: GST-full length
Procedure: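 Universal 'all 10-mer' protein binding microarrays (Agilent AMADID 015681) probed with GST-tagged S. cerevisiae TFs (full-length or DBD) made by in vitro transcription/translation (PURExpress), about 100-200 nM. Bound TF was detected with fluorescent anti-GST. Each ungapped 8-mer (which stands for itself and its reverse complement) is scored by the PBM enrichment score (E-score), a modified Wilcoxon-Mann-Whitney statistic from -0.5 to +0.5, computed with the Universal PBM Analysis Suite. Scale: above 0.35 generally sequence-specific binding.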

Row | Sequence | PBM E-score
1 | AATATTGT | 0.113
2 | GCGTTTGA | -0.101
3 | AGCATATC | -0.101
4 | CAGGTAGG | -0.039
5 | CACTTGGA | -0.0183
6 | ACTAGTAA | 0.233
7 | AGAGTCAC | -0.148
8 | ACATTCGG | 0.133
9 | GAACAGCC | -0.123
10 | AGGCCCTA | -0.042
11 | AGATACTA | -0.205
12 | CACTACGC | 0.0645
13 | ATCCAGGA | -0.00502
14 | GAGCAAAA | -0.0379
15 | CAACTGCG | -0.12
16 | CTCCCTCC | -0.107
17 | AACCATAC | -0.147
18 | TGACTACA | 0.335
19 | TCTAGGAA | 0.315
20 | GAGAAAGA | -0.107
21 | AGCCATCA | -0.0385
22 | GACTGAAA | -0.0442
23 | AATATTAT | 0.0776
24 | CGTTAACC | 0.187
25 | CGAAAACC | -0.0691

Row | Sequence | PBM E-score
26 | CATAGGCG | 0.0696
27 | TACACCTA | 0.15
28 | GTATAGCA | 0.0677
29 | CCTTCCAA | 0.145
30 | GCTAGAGC | 0.011
31 | GAACGCTA | -0.217
32 | GCAGGGAC | -0.14
33 | ACGGGCAT | 0.0188
34 | GGGCAAAA | 0.0722
35 | CCCTTTTC | -0.088
36 | CTCGGGGC | -0.128
37 | AGAATCCC | -0.066
38 | CTCCATTC | -0.253
39 | CACAGTAC | 0.0198
40 | CTACGGTC | -0.0693
41 | AAATCATT | 0.0124
42 | ATTGCTCC | -0.0965
43 | CACAACAC | 0.302
44 | CAGTCCGG | -0.14
45 | CCTGACCG | -0.159
46 | CAACTCTG | -0.133
47 | AACAGACC | 0.155
48 | CTCGGATC | -0.235
49 | CGTTATCC | 0.022
50 | AAAGATTT | -0.0251

Row | Sequence | PBM E-score
51 | CATTCGCC | -0.083
52 | AACCCGGA | -0.0971
53 | ATGCCATC | -0.0474
54 | ACCTAGCC | -0.251
55 | AGGCTGTG | 0.039
56 | CCGGTGCC | 0.055
57 | GCATATAC | -0.0399
58 | GTTCAGTA | 0.12
59 | ACGCGGTA | 0.104
60 | CGTTATAA | 0.15
61 | AAATGGAC | 0.235
62 | AGCAGTTC | -0.0376
63 | TCAGGTAA | 0.324
64 | AGGCCATC | -0.126
65 | TACGGGGA | -0.244
66 | ATCAGCCA | -0.364
67 | ATCGCCGA | -0.251
68 | AGTCCCCA | -0.348
69 | AAAAGGGT | -0.0622
70 | TCGGATAA | -0.0251
71 | TCTTATAA | -0.0852
72 | CTTCGCGA | -0.183
73 | CGGTCAGA | -0.293
74 | CGCGTAAC | 0.225
75 | CAGCGCTC | -0.125

Row | Sequence | PBM E-score
76 | TCACTCCA | -0.108
77 | ATTAAAGC | 0.0267
78 | CAGCCTGG | -0.181
79 | ATATCGGA | 0.0348
80 | CTCCTACC | -0.0978
81 | TACCCGTA | 0.00259
82 | CTAATGTC | 0.133
83 | ATATCCGC | -0.0306
84 | AGTTGTTC | 0.207
85 | CAAAAAGG | 0.0517
86 | AGACTGTG | -0.0723
87 | GTACGGAA | 0.0545
88 | AAGCTTGA | -0.196
89 | AAGTCAGA | -0.257
90 | CACGGTCA | 0.212
91 | ACCTACTC | 0.0618
92 | AGCCGGCC | -0.24
93 | GCCCAAAC | -0.097
94 | AGTATGTC | 0.0603
95 | GAAATATC | -0.188
96 | AACTTATG | 0.1
97 | CGTAATTC | 0.159
98 | CACCCAAC | -0.0999
99 | ATTGCGTC | -0.111
100 | ACTCTACT | -0.0605

Row | Sequence | PBM E-score
101 | ACGACGAA | 0.0477
102 | AGAGAAGA | 0.0816
103 | CCCCCAGA | -0.307
104 | TTGAAAAA | 0.184
105 | AAAGTCTT | -0.00998
106 | ACTTGCAG | -0.11
107 | CTTAACCC | -0.0788
108 | ATAAGCTA | 0.00041
109 | CGCCAGTC | -0.146
110 | ATGGCCAG | -0.149
111 | AGCGAAAA | -0.0598
112 | TCAACGAA | 0.0622
113 | ACCAGCGG | -0.155
114 | ACCTTGCA | -0.0855
115 | CCGTGATC | -0.32
116 | CTTGTTTA | 0.221
117 | ACTTTCCC | 0.0581
118 | AACGCGGT | 0.201
119 | CAATCTTA | 0.0878
120 | GTATGCCA | -0.251
121 | AAAGAGAA | -0.114
122 | ACCAACAA | 0.211
123 | CCCTTTCC | 0.00701
124 | AGGTAACT | 0.297
125 | CCTCAAGA | 0.193

Row | Sequence | PBM E-score
126 | TTAGCTAA | -0.0988
127 | ACTACAAA | 0.109
128 | ATGTCGAG | 0.183
129 | GGTCGAGA | -0.147
130 | ACGATCCG | -0.131
131 | ATTGCGTG | 0.24
132 | CGGTCCGC | -0.146
133 | ACCACAAG | -0.0935
134 | AGAGGATC | -0.302
135 | TCCTGAGA | 0.0668
136 | CCCAAAAA | 0.104
137 | TAATCGTA | 0.186
138 | CCGCCTAC | -0.166
139 | ACCTAATG | 0.0874
140 | GTCCACAA | 0.0584
141 | GCACACAC | 0.17
142 | CCAAGAAC | -0.156
143 | AGTTCAAT | -0.0766
144 | AAGTAATA | 0.134
145 | CTTGCAGC | -0.0503
146 | AACGTAAG | 0.105
147 | CAATACTG | -0.0559
148 | ATCTTTAC | 0.233
149 | GATTCTGA | -0.195
150 | AACTGACT | -0.207

Row | Sequence | PBM E-score
151 | CACCTACA | 0.227
152 | ATTAGATC | 0.096
153 | GCAAGCTA | 0.00568
154 | ATCGGATG | -0.132
155 | GCGTACAC | 0.186
156 | TGCAGCAA | -0.1
157 | AGTTTCGG | -0.17
158 | GAAACGCC | -0.0316
159 | ATGCAATG | -0.0896
160 | ATCGCTGC | -0.195
161 | GAGGCATC | 0.145
162 | CCGGGGGA | -0.233
163 | AGACAGGA | -0.0282
164 | CTTCCTTA | 0.146
165 | CCCTGTGC | 0.0815
166 | GATGTTGA | 0.111
167 | CAAGCTGA | -0.224
168 | CAGTTGCC | 0.261
169 | ATTATGGA | -0.0113
170 | AAATGGGT | 0.00181
171 | CAAATCTC | -0.0859
172 | CTGATCTC | -0.194
